Experimental data from the supplement of paper PMC7726561.
The full ranking holds about 1,100 sequences; the median of “thermal melting temperature (Tm) of peptide-HLA complex” is about 58, and the lowest 2% start at about 42. Some of the results follow.

These sequences were tested against HLA-A*02:01 (assay: thermal melting temperature (Tm) of peptide-HLA complex; higher = more thermostable pHLA complex). Settings: C1R-A*02:01.
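Further: cell lysates heated 10 min at 37–73 °C, remaining pHLA pulled down with pan-class I antibody, peptides quantified by DIA-MS versus 37 °C, Tm where half the complex is lost.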

Sequence	thermal melting temperature [°C]
KLMNVDPDSV	53.8
SLDQPTQTV	51.9
ALTDFVRSV	57
SLLENIAKA	60.6
SLSDTVEKL	55.2
TLADVLYHV	63.5
TLLAAEFLKQV	62.3
QLLPSIPQL	53.7
SLFSEETPVVL	49.1
GLLKDIREL	54
TLAGDVHIV	55.9
TIPEAFRGV	46.3
LLGPRLVLA	49
ALYPGQLVQL	58.4
NLMEQPIKV	55.4
KLSDLQTQL	54.1
